Among the data in a protein production outcome set (Wang et al. 2014) are protein production values, retold here.

The data set in a line: label from the status in PepcDB records.

With “MNSAAGFSHLDRRERVLKLGESFEKQPRCAFHTVRYDFKPASIDTSSEGYLEVGEGEQVTITLPNIEGSTPPVTVFKGSKKPYLKECILIINHDTGECRLEKLSSNITVKKTRVEGSSKIQYRKEQQQQQMWNSARTPNLVKHSPSEDKMSPASPIDDIERELKAEASLMDQMSSCDSSSDSKSSSSSSSEDSSSDSEDEDCKSSTSDTGNCVSGHPTMTQYRIPDIDASHNRFRDNSGLLMNTLRNDLQLSESGSDSDD”, the protein production entry is “not failed”.
“MDKNLMMPKRSRIDVKGNFANGPLQARPLVALLDGRDCSIEMPILKDVATVAFCDAQSTSEIHEKVLNEAVGALMWHTIILTKEDLEKFKALRIIVRIGSGTDNIDVKAAGELGIAVCNVPGYGVEEVADTTMCLILNLYRRTYWLANMVREGKKFTGPEQVREAAHGCARIRGDTLGLVGLGRIGSAVALRAKAFGFNVIFYDPYLPDGIDKSLGLTRVYTLQDLLFQSDCVSLHCTLNEHNHHLINEFTIKQMRPGAFLVNTARGGLVDDETLALALKQGRIRAAALDVHENEPYNVFQGALKDAPNLICTPHAAFFSDASATELREMAATEIRRAIVGNIPDVLRNCVNKEYFMRTPPAAAAGGVAAAVYPEGKLQMISNQEK”: the protein production entry is listed as “failed”.
For “MAHGPRYRVPFRRRREGKTNYRKRLKLLKSGKPRLVVRKSLNHHIAQIIVYDPKGDRTLVSAHTRELIRDFGWKGHCGNTPSAYLLGLLIGYKAKKAGIEEAILDIGLHPPVRGSSIFAVLKGAIDAGLNVPHSPEIFPEDYRIRGEHIAEYARMLKEQDEDRFRRQFGGYLEKGLDPEKLPEHFEEVKARIIEKFESEGARE” the value was “failed”.
